Measurements as given in PubChem BioAssay (NCI).
Several values for one entry are separate records, joined by “and”; a condition that tells them apart may be missing. Identical values can stand only once.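 Growth conditions: 96-well plates. Treatment: test compound, 48 hours, 5 concentrations. Analysis: linear interpolation between bracketing concentrations; unreached endpoints set to highest concentration. GI50 is the concentration that inhibits growth by half. TGI is the concentration that stops growth completely.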 Peptide text beside a SMILES is read from it. * marks the point of attachment. Boc = CC(C)(C)OC(=O)*; tBu = CC(C)(C)*

Tested on: NCI-H322M lung
Experiment: growth of human tumour cells (NCI), 48 h

Row | SMILES | GI50 | TGI
1 | CC/C(=C(/c1ccc(/C=C/C(=O)O)cc1)c1ccc2[nH]ncc2c1)c1ccc(F)cc1Cl | 15.8 µM | 30.8 µM
2 | Cn1c(=O)c(C(=O)NC23CC4CC(CC(C4)C2)C3)c(O)c2ccccc21 |  | 65 µM
3 | Cc1ccc2oc3c(ccc(=O)n3C)c(=O)c2c1 |  | > 100 µM
4 | Oc1c(I)cc(Cl)c2cccnc12 | 4.37 µM and 21.1 µM | 41.9 µM and 60 µM
5 | CC(=O)Oc1ccc(/C=C/C(=O)NCCOC(=O)/C=C/c2ccc(OC(C)=O)c(OC(C)=O)c2)cc1OC(C)=O |  | > 100 µM
6 | O=C(Nc1ccc(Cl)c(C(F)(F)F)c1)C(=O)c1c(O)c2ccccc2oc1=O |  | > 100 µM
7 | CCOC(=O)c1cc2cc(OCc3ccccc3)ccc2[nH]1 | > 100 µM | > 100 µM
8 | CON(C)C(=O)C(C)NC(=O)OC(C)(C)C (stereo not drawn) |  | > 100 µM
9 | Clc1ccc(-c2nnc(-c3nsc4ccccc34)o2)cc1 |  | > 100 µM
10 | NNC(=O)N/N=C1\CNC(=O)C(=O)C1c1nc2ccccc2s1 (stereo not drawn) |  | > 100 µM
11 | COc1cc2c(cc1OC)C(SC)C(=O)N(Cc1cccc(OC)c1OC)CC2 (stereo not drawn) |  | > 100 µM
12 | C=CC1(O)CCCC=C1COCc1ccccc1 (stereo not drawn) |  | > 100 µM
13 | CCOP(=O)(/C=C/n1cnc2c(=O)n(C(C)=O)c(N)nc21)OCC |  | > 100 µM
14 | O=C(O)Cn1ccc(=O)c2c([N+](=O)[O-])cccc21 |  | > 100 µM
15 | COc1ccc(/C=N/n2c(Cc3ccccc3)n[nH]c2=O)cc1 |  | > 100 µM
16 | O=C(CN(/C=C/C(=O)C(F)(F)F)c1ccccc1)c1ccc(F)cc1 | 22.3 µM | 78.5 µM
17 | CC(C)=CC(=O)CC(=O)C(=O)NCCNC(=O)C(=O)CC(=O)C=C(C)C |  | > 50 µM
18 | Cc1ccc(-c2nc(C(Cl)Cl)nc3cc(C)nn23)cc1 | 1.19 µM | 3.9 µM
19 | CC1=CC(=O)c2c(O)c3c(c(O)c2C1=O)C1C(O)C(C3=O)C23C(=O)c4c(O)c(C)cc(O)c4C(O)=C2C(=O)CC(O)C13 (stereo not drawn) |  | 5.57 µM

Row | SMILES | GI50 | TGI
20 | C=C(C)[C@@H]1CC[C@]2(C(=O)n3ccnc3)CC[C@]3(C)[C@H](CC[C@@H]4[C@@]5(C)CCCNC(C)(C)[C@@H]5CC[C@]43C)[C@@H]12 | 2.94 µM | 14.9 µM
21 | O=C(/C=C/c1ccc(Cl)cc1)c1ccc(Cl)s1 |  | > 100 µM
22 | Cc1cc(C)c(S(=O)(=O)N(CCCN)OCCCN)c(C)c1 |  | > 100 µM
23 | CC1=NN(C(=O)c2ccc(C)cc2)C(=O)C1N=Nc1ccccc1C(=O)O (stereo not drawn) |  | > 100 µM
24 | CC(OC(C)(C)C)C(NC(=O)C(N)CCCCNC(=O)OC(C)(C)C)C(=O)NC(Cc1ccccc1)C(=O)O (stereo not drawn) (H-Lys(Boc)-Thr(tBu)-Phe-OH; configuration not given here) |  | > 100 µM
25 | Cc1cc(OC(=O)Nc2ccc(Cl)cc2)ccc1C(=S)Nc1ccccc1 |  | > 100 µM
26 | CN(c1ccc(NC(=O)NCCN2CCOCC2)cc1)c1ccnc(Nc2ccc(CS(C)(=O)=O)cc2)n1 | > 25 µM | > 25 µM
27 | Cn1c(CC(O)c2nc3ccccc3n2C)nc2ccccc21 (stereo not drawn) |  | > 56.7 µM
28 | O=c1[nH]nc(Cc2ccccc2)n1C1CC1 |  | > 100 µM
29 | CC(=O)O[C@H]1C[C@H]2[C@@H]([C@H](OC(C)=O)C[C@@H]3CC4(CC[C@@]32C)OOC2(CCCCC2)OO4)[C@@H]2CC[C@H]([C@H](C)CCC(=O)O)[C@@]12C |  | 26.9 µM
30 | CCN(CC)Cc1ccc(Nc2c3ccccc3nc3ccccc23)cc1 |  | 13.6 µM
31 | CCC1=C(c2ccc(OC)cc2)CC[C@]2(CCNC2=O)[C@@H]1C |  | > 100 µM
32 | CCc1c(C#N)c(SC(C(N)=O)c2ccccc2)nc(N2CCC(N)CC2)c1C#N (stereo not drawn) | 14.7 µM | 29.6 µM
33 | Cc1cc2c3c(c1)CCCN3CCC2 |  | > 10 µM
34 | CC1=C(C(=O)CC(=O)C(=O)Nc2ccccc2C)Sc2ccccc2N1 |  | > 100 µM
35 | COc1cccc(Nc2nc(NS(=O)(=O)c3cc(C)c(Cl)cc3S)n[nH]2)c1 |  | > 100 µM
36 | CCCCOCCOCCOC1=C(Cl)C(=O)c2c(O)ccc(O)c2C1=O |  | 3.02 µM
37 | CN(C)CCS(=O)(=O)Nc1cc(-c2ccc3ncnc(Nc4ccc(F)c(Cl)c4)c3c2)cnc1Cl | 0.192 µM | 1.25 µM
38 | Oc1ccc(-c2[nH]c3ccccc3c2-c2nc3ccccc3o2)cc1 | 4.87 µM | 18.7 µM
